Data taken from the RNAGym collection of RNA variant scans (doi:10.7554/elife.90254).
The source gives no read counts; variants with many changes may rest on few reads.

B1: LINE1-mini (parent)
chain: GGCAGAGCUCAACACAGCGUGGCAAAGUGGCUGUGGCUAGACUGCC

Variants of: B1
Test: self-cleavage, relative activity (ratio to wild type); higher = more cleavage; in vitro, sequencing; the parent is a self-cleaving ribozyme
Work on GGCAGAGCUCAACACAGCGGGGCCAAGUGGAUGUGGCUAGACUGGC [U20G A24C C31A C45G] yielded a self-cleavage of 0.01.
For GGCAGAGCUCAACACCGCGUGGCAAAGAGGCUGUGGCUAGACCGCU [A16C U28A U43C C46U], the self-cleavage was 0.02.
With GGCAGAGCUAAACACAGCCUGGCAAAGUGGCUGUGGAUAUACUGCC [C10A G19C C37A G40U] the self-cleavage was 0.01.
GGCAGAGCUCAAGACGGCGCGGCAAAGAGGGUGUGGCUAGACUGCC [C13G A16G U20C U28A C31G] showed a self-cleavage of 0.02.
GGCCCAGCUCAACACAGCGUGACAAAGUGGCUAUGGCUAGACUGCC [A4C G5C G22A G33A] gave a self-cleavage of 0.03.
For UACAGCGUUCAACACAGCGUGGUAAAGUGGCUCUGGCUAGACUGCC [G1U G2A A6C C8U C23U G33C], the self-cleavage was 0.37.
For GGGAGAGCUCAACACAGCGUGGCAAAGUGGUUGUGGCUUGACUGCC [C3G C31U A39U], the self-cleavage was 0.01.
With GAUAGAGCUCAACACAGCGUGGUAAAGUGGCCGUGGCGAGAUUGCC [G2A C3U C23U U32C U38G C42U] the self-cleavage was 0.07.
For CGCAGAGCUCAACACAGGGUGGCAAAGUGGCUGUGGAUACACUGCC [G1C C18G C37A G40C], the self-cleavage was 0.01.
With GGCAGAGUUCAACACAGCGUGGCAAAGUGGAUGUGGCUAGACUGUC [C8U C31A C45U] the self-cleavage was 0.18.
GGCAGAGCUCGACACAGGGUGGCUAAGUACCUGUGGCUAGACUACC [A11G C18G A24U G29A G30C G44A] showed a self-cleavage of 0.01.
In the case of GGCAUAGCCCAGCACAGCGUGGCAAAGUGGCUGUGGCUAGACUGCC [G5U U9C A12G], the self-cleavage is reported as 0.02.
GGCAAAGCUCAACACAACGUGGCAAAGUGGCUCUGGCUAGACUGGC [G5A G17A G33C C45G] showed a self-cleavage of 0.01.
Work on GGCAGAGCCCAAUACAGCGUAGCAAAGUGGCUUUGUCUUGACUGCC [U9C C13U G21A G33U G36U A39U] yielded a self-cleavage of 0.01.
GGCAGAGCUCAACACAGCGUGGCAAAGUGGCUCUCCCUAGACUGCC [G33C G35C G36C] gave a self-cleavage of 0.02.
Variant GGCUGAGCUGAAUACAGCGUGGCAAAGUGGCUGUGGCUAGACUGCC [A4U C10G C13U] has a self-cleavage of 0.02.
GGCAGAGAUCCACACAGCGUGGCAAAGUGGCUGUGGCUAGACUGCU [C8A A11C C46U] showed a self-cleavage of 0.01.
For GGGAGAGCCCAAAACAUCGUGGCAAAGCGGCUGUGGCUAGACUGCC [C3G U9C C13A G17U U28C], the self-cleavage was 0.02.
In the case of GGCAGAGCUCAACACAGCGUGGCAAAGUAGCAGUGGCUGGACUGCC [G29A U32A A39G], the self-cleavage is reported as 0.02.
With GGCAGAGCUCAUCACAGCGUGGGAAGGUGGCUGUGGCUAGACUGCC [A12U C23G A26G] the self-cleavage was 0.09.
Work on GGCACAGCUCAACACUGCGUGGCAAAGUGGCUGUGGCUAGACUGCG [G5C A16U C46G] yielded a self-cleavage of 0.01.
AGCAGAGCUCAAGACAGCGUGGCAAAGUGGCUGACGCUAGACUGCC [G1A C13G U34A G35C] gave a self-cleavage of 0.71.
GGCAGAGGUAAACACAGCGUGGCAAGGUGGCUGUGGUUAGAAUGUC [C8G C10A A26G C37U C42A C45U] gave a self-cleavage of 0.01.
With CGCAGAGUUCAACACAGCAUGGCAAAGUGGCUGUGGUUAGACUGCC [G1C C8U G19A C37U] the self-cleavage was 0.
With GGCAUAGCUCAACACAGCGUGGCAAAGUGGCUGUGGCUACAUUGCC [G5U G40C C42U] the self-cleavage was 0.03.
In the case of GGCAGGGCUCAACACAGCGUCGUAAAGUGGCUGUGGCUAUACUCCC [A6G G21C C23U G40U G44C], the self-cleavage is reported as 0.02.
GGCAGAGCUCAACACAGCGUUGCAAAGUGGCUGUGGCUAGAGUCCC [G21U C42G G44C] gave a self-cleavage of 0.15.
GGCAGAACUCAACACAGUGUGGCAAAGUGGCUGUGGCUAGACUGAC [G7A C18U C45A] showed a self-cleavage of 0.12.
GUCAGAGCUCAACACAGCGUGGUAAAGUGGCUAUGGCUAGACUGCC [G2U C23U G33A] gave a self-cleavage of 0.01.
Variant GGCAGAGCUCGACACAGCGUGGCAAAGUCUCUAUCGCUAGACUACC [A11G G29C G30U G33A G35C G44A] has a self-cleavage of 0.01.
Variant GGCAGAGCUCAACACAACGUGGCAAAGUGGAUGUGGCUAGAAUGCU [G17A C31A C42A C46U] has a self-cleavage of 0.01.
In the case of GGCAGAGCUCAACGCAGCGUGACAAAGUGGCUGUGGCUAGACUCCC [A14G G22A G44C], the self-cleavage is reported as 0.08.
Variant GGAAUAGCUCAACACAGCGUCGCAAAGUGGCUGUGGAUAGACUGCC [C3A G5U G21C C37A] has a self-cleavage of 0.1.
Work on GCCAGAGCUCAACACAGCGUGGCAAACUGGUUGUGGCUAGACUGCC [G2C G27C C31U] yielded a self-cleavage of 0.06.
GGCAGAGCUCAACUCAGCGUCGCAAAGUGGCUGUCGCUAAACUGCC [A14U G21C G35C G40A] gave a self-cleavage of 0.03.
Work on GGCAGAGCUCAACACAGCGUGGCAUAGUUGUUGUGGCCAGACUUCC [A25U G29U C31U U38C G44U] yielded a self-cleavage of 0.02.
For GGCAGAACUAAAUACAUCGUGGCAACGUGGCUGUAGCUAGACUGCC [G7A C10A C13U G17U A26C G35A], the self-cleavage was 0.02.
Work on GGAAGAGCUCACCACAGCGUGGCAAAGUGGCUGUGGCUAUACUGCC [C3A A12C G40U] yielded a self-cleavage of 0.13.
For GGCAUAGCUAAACACAGCGUGGCAAAGUGGCUGUGUCUAGACUGCC [G5U C10A G36U], the self-cleavage was 0.04.
For GGCAGAGCUCAACACAACGUGGCAAAGUGGCGGUGGCUAGACAGCC [G17A U32G U43A], the self-cleavage was 0.01.
Variant GUCAGUGCUCAACACAGCAUGGAAAAGUGGCUGUGGCUAGACUGCC [G2U A6U G19A C23A] has a self-cleavage of 0.27.
With GACGAAGCUCAACACAGCGUGGCAAAGUGGCUGUGGCUAGACUGCC [G2A A4G G5A] the self-cleavage was 0.12.
For GACAGAGCUCAACACAGCGUGGCAUAGUGGCAGUGGCUAGACUGCC [G2A A25U U32A], the self-cleavage was 0.26.
GGGAGAUCUGAAAACAGCGUGGCAAAGGGGCUGUGGCUCGACUGCC [C3G G7U C10G C13A U28G A39C] showed a self-cleavage of 0.01.
For AGCAGAGCUCAACACAGCGUGGCAAAGUGGCUGUGGAAAGACUGCC [G1A C37A U38A], the self-cleavage was 0.04.
With GGCAGAGCAAAACACAGAGUGGAAAAGUGGCUGUGGCUAGACUGCC [U9A C10A C18A C23A] the self-cleavage was 0.03.
In the case of GGCAGAGCUCAACACAGCGUCGCAAAGUGGUUGUGGCUAGAUUGCC [G21C C31U C42U], the self-cleavage is reported as 0.25.
For GGCAGAGCUCAACACAGCGUGGCAAUGUUGCUGUGUCGAGACUGCC [A26U G29U G36U U38G], the self-cleavage was 0.
Work on GGCAGAGCUCAACACAGCGUCGAAAAGUGGCUGUGGCGAGACUGCC [G21C C23A U38G] yielded a self-cleavage of 0.
Variant AUCAGAGCACAACACAGCGUGGCAAAGUGGCUGUGGCUAAACUGCC [G1A G2U U9A G40A] has a self-cleavage of 0.32.
GGCAGAGCGCAACACAGCGUGGAAAAGUGGCUGUGGCUAGACUGUC [U9G C23A C45U] showed a self-cleavage of 0.05.
In the case of GGCAGAGAUCAACGCAGCGUGGCAAAGUGGCUGUGGCUCGACUGCC [C8A A14G A39C], the self-cleavage is reported as 0.13.
For GGCAGAGCUCAACACAGCGUGGCAAAGUGGCGGUGGCUAGACUGGA [U32G C45G C46A], the self-cleavage was 0.03.
CGCAGAGCUCAAGACAGCGUGGCAAAGUGGCUGUGGGUAGACUGCC [G1C C13G C37G] gave a self-cleavage of 0.02.
Work on GGCAGAGCUCAACACAGAGUUGCAAAGUGGCUGUGUCUAGACUGCA [C18A G21U G36U C46A] yielded a self-cleavage of 0.35.
In the case of GGCAGAGCUCAACACUGCGUGGCAAAGUGAAUGUGGCUAGACUGCC [A16U G30A C31A], the self-cleavage is reported as 0.01.
